Laboratory results taken from PubChem BioAssay AID1814 (Broad Institute, 2009).
In all, about 300,000 compounds went through this assay and about 22,000 (7.3%) were called active. This list was built around the results that the source calls inconclusive (neither active nor inactive); the mix of calls is not that of the screen. No stated cut-off is given here; in the data, active means activity score below about -60%; inconclusive means mostly about -28% to -61%; inactive means positive scores.

Assay: Activators via SNCA 5'UTR binding, MLPCN (AID 1814)
Conditions: alpha-synuclein 5'UTR reporter, activators screen; active compounds read low; tested at 7.5 µM

| SMILES | activity score |
| --- | --- |
| CCCCOc1ccccc1NC(=O)Cn1c(-c2nonc2N)nc2ccccc21 | inactive: 124% |
| O=C(CC1(O)C(=O)Nc2cc(Cl)cc(Cl)c21)c1ccncc1 (stereo not given) | inconclusive: -37.7% |
| Cc1cc(C)n(-c2nc3ccccc3c(=O)n2OCC(=O)OCc2ccccc2)n1 | inactive: 62% |
| CCc1ccc(NC(=O)N2CCCCCC2)cc1 | active: -124% |
| CCOC(=O)c1[nH]c(C)c(C(=O)C(C)C)c1C | inconclusive: -61.1% |
| COC(=O)c1cn(CCOc2ccccc2F)c2ccccc12 | inconclusive: -56.7% |
| COc1ccc(CC(=O)Nc2nnc(C(C)(C)C)s2)cc1OC | inconclusive: -31.4% |
| Cc1ccc(NC2=NCC(=O)N2C2CCCC2)cc1 | inconclusive: -46.7% |
| CCc1cc2c(Sc3nc4ccccc4s3)ncnc2s1 | inactive: 59.9% |
| Brc1ccc(COn2ccnc2)cc1 | inconclusive: -44.3% |
| CCc1cccc(NC(=O)c2ccc(Br)o2)c1 | active: -116% |
| O=C(COc1ccccc1)Nc1ccccc1N1CCN(c2ccccc2)CC1 | inactive: 42.7% |
| O=C(c1ccc([N+](=O)[O-])o1)N1CCN(c2nc3c(Cl)cccc3s2)CC1 | inconclusive: -49.7% |
| CCS(=O)(=O)c1ccc(N=Nc2ccc(O)c3ncccc23)c(OC)c1 | inactive: 78.1% |
| Brc1ccc(C2=Nn3c(nnc3-c3n[nH]c4c3CCC4)SC2)cc1 | inactive: 86% |
| CCOC(=O)c1sc2nc3c(cc2c1N)COC(C)(CC)C3 (stereo not given) | inconclusive: -51.9% |
| CCOc1ccc(-c2csc(/C(C#N)=C\c3ccc(O)c([N+](=O)[O-])c3)n2)cc1 | inconclusive: -57.5% |
| COc1ccc(-n2nc(C(=O)NCC(=O)N3CCN(c4ccccn4)CC3)c3ccccc3c2=O)cc1 | inconclusive: -52% |
| Cc1ccccc1NC1=C/C(=N\S(=O)(=O)c2cccs2)c2ccccc2C1=O | inactive: 114% |
| CCn1c(O)c(C=NC2CCCC2)sc1=S | inconclusive: -59.4% |

| SMILES | activity score |
| --- | --- |
| Cc1ccccc1C(=O)Nc1ccccn1 | inconclusive: -43.2% |
| CC(C)CC(/C(O)=C(\C#N)c1nc2ccccc2[nH]1)N1C(=O)c2ccccc2C1=O (stereo not given) | inactive: 64.9% |
| O=C(NC(=S)Nc1ccc(CN2CCCCC2)cc1)c1cc2ccccc2o1 | active: -68.5% |
| O=C(O)c1ccc(N/N=C/C2=C(N3CCOCC3)C(=C\c3ccccc3)/CC2)cc1 | inconclusive: -44% |
| CSc1ccc(-c2nnn(Cc3ccc(C)cc3)n2)cc1 | active: -168% |
| CCOc1ccc(-c2nnc(N)s2)cc1 | inconclusive: -52.4% |
| CCCCn1nnnc1SCC(=O)c1ccccc1F | inconclusive: -48.6% |
| O=C(O)CCN1C(=O)/C(=C/c2ccc(-c3nc4ccccc4s3)o2)SC1=S | inconclusive: -59.9% |
| Cc1cc(C)c(C#N)c(Nc2ccc3c(c2)OCCO3)n1 | inconclusive: -45.3% |
| COc1cccc(CN(C(=O)c2cc3ccccc3oc2=O)C2CC2)c1 | inconclusive: -60.6% |
| CCCCCCn1c(=O)[nH]c2nc3cc(N)ccc3nc2c1=O | inconclusive: -43.8% |
| CCn1nc(C)c(C(=O)Nc2cc(Oc3cc(C)cc(C)c3)cc([N+](=O)[O-])c2)c1C | inactive: 50.2% |
| OCCCNC(=S)Nc1ccc2nccnc2c1 | inconclusive: -34.1% |
| CN=c1scc(-c2ccc([N+](=O)[O-])cc2)n1/N=C/c1ccco1 | inconclusive: -58.7% |
| CC(C)(C)c1ccc(-c2nc(C#N)c(NCCCn3ccnc3)o2)cc1 | inconclusive: -52.3% |
| S=c1[nH]cnc2sc(Nc3ccccc3)nc12 | inconclusive: -60.7% |
| CCN(CC)CCC(c1cc(OC)c(OC)c(OC)c1)c1c(OC)cc(OC)c2c(C)cc(=O)oc12 (stereo not given) | inconclusive: -38.1% |
| CCCCN1/C(=C/c2ccc3ccccc3[n+]2CC)Sc2ccccc21 | inactive: 80.2% |
| COc1ccc2c(C)nc(Nc3nc(C)c(C)c(=O)[nH]3)nc2c1 | inactive: 103% |
| O=C(CN1CCNCC1)Nc1ccc(Oc2ccccc2)cc1 | inconclusive: -53.5% |

| SMILES | activity score |
| --- | --- |
| CCC1CCCCN1CCCNC(=O)Cn1ncn2nc(-c3ccc(OC)cc3)cc2c1=O (stereo not given) | inconclusive: -60.9% |
| COc1ccc(C(=O)Nc2ccc(C3(C#N)CCCC3)cc2)cc1 | inconclusive: -61% |
| Cc1nc(N)sc1C(=O)Nc1ccccc1 | inconclusive: -54.4% |
| Cc1ccc(/C([O-])=C(/C(=S)Nc2ccc(SC(F)F)cc2)[n+]2ccccc2)cc1[N+](=O)[O-] | inconclusive: -55.3% |
| CSCc1ccc(C(=O)Nc2cc(C)cc(C)c2)cc1 | active: -126% |
| COc1ccc(/C=N/Nc2cc(C)nc3c(C)cccc23)cc1 | active: -81.2% |
| COc1ccccc1-c1nc(-c2ccccn2)no1 | inactive: 76.5% |
| Brc1ccc(-c2nc3ccccc3s2)s1 | active: -115% |
| O=[N+]([O-])c1cc([N+](=O)[O-])c(Oc2cccc(Cl)c2Cl)cc1NN1CCCCC1 | inactive: 36% |
| Cc1cccc(NC(=O)c2ccc(N3CCOCC3)c([N+](=O)[O-])c2)n1 | active: -115% |
| Cc1ccnc(NC(=O)CCNC(=O)c2ccc(Cl)cc2)c1 | active: -110% |
| Oc1ccc(C2Nc3cccc4cccc(c34)N2)c(O)c1 | inconclusive: -51.3% |
| COc1ccc(NC(=O)C(C)Sc2ccccc2)cc1 (stereo not given) | inconclusive: -60.8% |
| CC1CCc2sc(-c3n[nH]c(=S)o3)cc2C1 (stereo not given) | inconclusive: -56.4% |
| CCN1C(=O)CC(N2CCN(c3ccc(C(=O)c4ccccc4)cc3)CC2)C1=O (stereo not given) | inconclusive: -60.1% |
| COC(=O)c1[nH]c2ccc(F)cc2c1NS(=O)(=O)c1ccc(OC)cc1 | inactive: 99.5% |
| O=C(Nc1nnc(SCC(=O)N2CCCc3ccccc32)s1)c1ccccc1 | inconclusive: -56.9% |
| CCOc1cc(CNc2ccc3c(c2)OCCO3)cc(Br)c1OCC | inactive: 97.4% |
| CCOC(=O)c1ccc(N/C(=N\S(=O)(=O)c2ccc(F)cc2F)c2ccccc2)cc1 | inconclusive: -48.1% |
| COc1cc(SC)ccc1C(=O)Nc1ncc(C)s1 | inactive: 98.1% |
